# Source: the supplement of paper PMC8728848
# Some of the results follow.
# B1: Blon2468mut (Bifidobacterium longum) (protein)
# chain: MTFIKQMMPRYVASMTAGIVAAAMAATCAFAPVANADAVSPTQETIQSTGRHFMVYYRAWRDVTMKGVNTDLPDDNWISMYDIPYGVDVVNIFSYVPSGQEEQAQPFYDKLKSDYAPYLHSRGIKLVRGIDYTGVAVNGFRTFMKEQNKTESEATEADYDAYAKQVIDKYMISVGLDGLDIDMQAHPNDADVKISDNVIRALSKHIGPKSAKPDTTMFLYDTNGSYLNPFKNVAECFDYVAYQQYGSSSDRTARAAADYQPYIGNEFVPGLTFPEEGDMNNRWYDATEPYEESHFYQVASYVREHNLGGMFVYALDRDGRNYDEDLRRIVPSNLLWTKTAIAESEGMALDTAKTAANHYLDRMSLRQVIDDNAASADKARDMVGKAANLYETNKAVLGGDYGEGFSNTYDPTLEAGLLGIDISVLQQQIDKSSEIIGADTAESDAKTALRMARDAAIDGLTGKIYTADQVSAWSQALKAALDATVPVPTPDSTDQNGNRDKVTNHKVQGQPKQLSATGISTDIIVAVGVTLAIAGVALSLSRKLS
# Experiments:
# Test in all cases: glycan array binding signal (z-score within array); higher = stronger binding
# Details in all cases: glycan notation: IUPAC condensed, linker removed
# [1] = target: Gal(b1-3)GlcNAc(b1-2)Man(a1-3)[GlcNAc(b1-4)][Gal(b1-3)GlcNAc(b1-2)Man(a1-6)]Man(b1-4)GlcNAc(b1-4)GlcNAc
# In short: (§1)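 The binding signal is a Z-score computed within each array. Data were drawn from 3228 arrays in the Consortium for Functional Glycomics database, restricted to those with a known protein sequence. Scores were averaged over arrays of the same protein sequence at different concentrations or buffers, and over linkers, and negative values can be taken as non-binding.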
# [2] = target: Gal(b1-3)GlcNAc(b1-2)[Gal(b1-3)GlcNAc(b1-6)]Man(a1-6)[Gal(b1-3)GlcNAc(b1-2)Man(a1-3)]Man(b1-4)GlcNAc(b1-4)GlcNAc
# In short: as §1
# [3] = target: Gal(b1-3)GlcNAc(b1-3)Gal(b1-3)GlcNAc
# In short: as §1
# [4] = target: Gal(b1-3)GlcNAc(b1-3)Gal(b1-4)Glc
# In short: as §1
# [5] = target: Gal(b1-3)GlcNAc(b1-3)Gal(b1-4)GlcNAc
# In short: as §1
# [6] = target: Gal(b1-3)GlcNAc(b1-3)Gal(b1-4)GlcNAc(b1-2)Man(a1-3)[Gal(b1-3)GlcNAc(b1-3)Gal(b1-4)GlcNAc(b1-2)Man(a1-6)]Man(b1-4)GlcNAc(b1-4)GlcNAc
# In short: as §1
# [7] = target: Gal(b1-3)GlcNAc(b1-3)Gal(b1-4)GlcNAc(b1-2)[Gal(b1-3)GlcNAc(b1-3)Gal(b1-4)GlcNAc(b1-6)]Man(a1-6)[Gal(b1-3)GlcNAc(b1-3)Gal(b1-4)GlcNAc(b1-2)Man(a1-3)]Man(b1-4)GlcNAc(b1-4)[Fuc(a1-6)]GlcNAc
# In short: as §1
# [8] = target: Gal(b1-3)GlcNAc(b1-3)Gal(b1-4)GlcNAc(b1-3)Gal(b1-4)GlcNAc(b1-2)[Gal(b1-3)GlcNAc(b1-3)Gal(b1-4)GlcNAc(b1-3)Gal(b1-4)GlcNAc(b1-6)]Man(a1-6)[Gal(b1-3)GlcNAc(b1-3)Gal(b1-4)GlcNAc(b1-3)Gal(b1-4)GlcNAc(b1-2)Man(a1-3)]Man(b1-4)GlcNAc(b1-4)[Fuc(a1-6)]GlcNAc
# In short: as §1
# [9] = target: Gal(b1-3)GlcNAc(b1-3)Gal(b1-4)GlcNAc(b1-6)[Gal(b1-3)GlcNAc(b1-3)]Gal(b1-4)Glc
# In short: as §1
# [10] = target: Gal(b1-3)GlcNAc(b1-3)Gal(b1-4)[Fuc(a1-3)]GlcNAc(b1-6)[Gal(b1-3)GlcNAc(b1-3)]Gal(b1-4)Glc
# In short: as §1
# [11] = target: Gal(b1-3)GlcNAc(b1-3)GalNAc
# In short: as §1
# [12] = target: Gal(b1-3)GlcNAc(b1-6)Gal(b1-4)GlcNAc
# In short: as §1
# [13] = target: Gal(b1-3)GlcNAc(b1-6)GalNAc
# In short: as §1
# [14] = target: Gal(b1-3)GlcNAc(b1-6)[Gal(b1-3)]GalNAc
# In short: as §1
# Gal(b1-3)GlcNAc6S = target: Gal(b1-3)GlcNAc6S
# In short: as §1
# [15] = target: Gal(b1-3)[Fuc(a1-4)]GlcNAc
# In short: as §1
# [16] = target: Gal(b1-3)[Fuc(a1-4)]GlcNAc(b1-2)Man
# In short: as §1
# [17] = target: Gal(b1-3)[Fuc(a1-4)]GlcNAc(b1-2)Man(a1-3)[Gal(b1-3)[Fuc(a1-4)]GlcNAc(b1-2)Man(a1-6)]Man(b1-4)GlcNAc(b1-4)[Fuc(a1-6)]GlcNAc
# In short: as §1
# [18] = target: Gal(b1-3)[Fuc(a1-4)]GlcNAc(b1-3)Gal(b1-3)[Fuc(a1-4)]GlcNAc
# In short: as §1
# [19] = target: Gal(b1-3)[Fuc(a1-4)]GlcNAc(b1-3)Gal(b1-4)GlcNAc
# In short: as §1
# [20] = target: Gal(b1-3)[Fuc(a1-4)]GlcNAc(b1-3)Gal(b1-4)[Fuc(a1-3)]GlcNAc
# In short: as §1
# [21] = target: Gal(b1-3)[Fuc(a1-4)]GlcNAc(b1-6)GalNAc
# In short: as §1
# [22] = target: Gal(b1-3)[GlcNAc(b1-6)]GalNAc
# In short: as §1
# [23] = target: Gal(b1-3)[Neu5Ac(a2-6)]GalNAc
# In short: as §1
# [24] = target: Gal(b1-3)[Neu5Ac(a2-6)]GlcNAc(b1-4)Gal(b1-4)Glc
# In short: as §1
# [25] = target: Gal(b1-3)[Neu5Ac(b2-6)]GalNAc
# In short: as §1
# Gal(b1-4)Gal = target: Gal(b1-4)Gal
# In short: as §1
# [26] = target: Gal(b1-4)GalNAc(a1-3)[Fuc(a1-2)]Gal(b1-4)GlcNAc
# In short: as §1
# [27] = target: Gal(b1-4)GalNAc(b1-3)[Fuc(a1-2)]Gal(b1-4)GlcNAc
# In short: as §1
# Gal(b1-4)Glc = target: Gal(b1-4)Glc
# In short: as §1
binder,measurement,setting,value
B1,glycan array binding signal (z-score),[1],-0.042
same,glycan array binding signal (z-score),[2],-0.083
same,glycan array binding signal (z-score),[3],-0.07
same,glycan array binding signal (z-score),[4],-0.043
same,glycan array binding signal (z-score),[5],-0.079
same,glycan array binding signal (z-score),[6],-0.09
same,glycan array binding signal (z-score),[7],0.03
same,glycan array binding signal (z-score),[8],0.124
same,glycan array binding signal (z-score),[9],-0.058
same,glycan array binding signal (z-score),[10],-0.087
same,glycan array binding signal (z-score),[11],-0.075
same,glycan array binding signal (z-score),[12],-0.081
same,glycan array binding signal (z-score),[13],-0.095
same,glycan array binding signal (z-score),[14],-0.06
same,glycan array binding signal (z-score),Gal(b1-3)GlcNAc6S,-0.096
same,glycan array binding signal (z-score),[15],-0.042
same,glycan array binding signal (z-score),[16],-0.067
same,glycan array binding signal (z-score),[17],-0.049
same,glycan array binding signal (z-score),[18],-0.068
same,glycan array binding signal (z-score),[19],-0.083
same,glycan array binding signal (z-score),[20],-0.085
same,glycan array binding signal (z-score),[21],-0.056
same,glycan array binding signal (z-score),[22],-0.055
same,glycan array binding signal (z-score),[23],-0.048
same,glycan array binding signal (z-score),[24],-0.034
same,glycan array binding signal (z-score),[25],-0.065
same,glycan array binding signal (z-score),Gal(b1-4)Gal,-0.031
same,glycan array binding signal (z-score),[26],-0.081
same,glycan array binding signal (z-score),[27],-0.041
same,glycan array binding signal (z-score),Gal(b1-4)Glc,-0.053
